# Test results published in paper PMC4336329 (PLoS ONE, 2015).
# Screen size: about 310,000 compounds; about 14,000 (4.5%) showed an effect of 50% or more. The effect is printed as a negative number. Some of the results follow.
# Molecular target: human ether-à-go-go-related gene (hERG) potassium channel (human, UniProt Q12809)
# Assay: primary screen, population patch clamp on CHO cells stably expressing hERG
# 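Note: peak tail current of the secondary pulse compared with the same well before compound.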
# Chain of human ether-à-go-go-related gene (hERG) potassium channel (Q12809 whole entry, looked up): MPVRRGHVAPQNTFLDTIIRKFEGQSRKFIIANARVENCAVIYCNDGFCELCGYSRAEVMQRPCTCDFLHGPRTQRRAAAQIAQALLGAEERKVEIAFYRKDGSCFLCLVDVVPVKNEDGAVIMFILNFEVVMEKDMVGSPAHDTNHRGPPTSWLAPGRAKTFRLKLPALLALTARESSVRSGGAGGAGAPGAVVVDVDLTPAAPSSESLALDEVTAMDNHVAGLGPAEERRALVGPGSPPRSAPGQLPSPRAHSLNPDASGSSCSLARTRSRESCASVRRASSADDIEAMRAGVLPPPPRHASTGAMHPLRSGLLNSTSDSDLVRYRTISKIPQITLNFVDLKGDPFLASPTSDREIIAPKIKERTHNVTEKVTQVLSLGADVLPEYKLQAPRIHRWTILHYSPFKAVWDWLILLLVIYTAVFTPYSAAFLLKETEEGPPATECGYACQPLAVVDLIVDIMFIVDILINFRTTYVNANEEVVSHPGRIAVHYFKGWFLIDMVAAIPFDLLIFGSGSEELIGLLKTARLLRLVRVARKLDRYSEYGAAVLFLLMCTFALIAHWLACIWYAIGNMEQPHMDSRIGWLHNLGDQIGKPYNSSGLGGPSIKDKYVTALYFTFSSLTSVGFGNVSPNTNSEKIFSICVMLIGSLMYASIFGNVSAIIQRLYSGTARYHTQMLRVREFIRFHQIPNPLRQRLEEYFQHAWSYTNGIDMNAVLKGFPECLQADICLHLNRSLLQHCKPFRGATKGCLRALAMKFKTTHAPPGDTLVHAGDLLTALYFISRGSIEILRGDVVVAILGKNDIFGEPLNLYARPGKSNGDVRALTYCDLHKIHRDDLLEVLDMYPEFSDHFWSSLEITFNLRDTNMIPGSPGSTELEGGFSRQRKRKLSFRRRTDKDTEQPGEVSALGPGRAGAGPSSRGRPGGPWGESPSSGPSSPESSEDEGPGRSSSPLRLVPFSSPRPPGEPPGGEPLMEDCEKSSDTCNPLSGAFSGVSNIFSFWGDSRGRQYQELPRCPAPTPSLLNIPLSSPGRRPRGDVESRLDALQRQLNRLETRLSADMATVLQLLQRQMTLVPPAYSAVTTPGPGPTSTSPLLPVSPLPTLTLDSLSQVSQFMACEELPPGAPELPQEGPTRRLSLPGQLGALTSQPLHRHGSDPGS
row,SMILES,"hERG current change (%, negative = inhibition) at 10uM [%]"
1,COc1ccc(CNC(=O)Cc2cn(C)c3ccccc23)c(OC)c1,-1.71
2,COc1ccc(-n2nc3c(c2NC(=O)COc2ccccc2)CS(=O)C3)cc1 (centres unmarked),-28.2
3,COc1ccc(C(=O)C(c2ccccc2)N2CCOCC2)cc1.Cl (centres unmarked),-2.36
4,COc1ccc(/C(N)=N/OC(=O)C2CCC(=O)N2S(=O)(=O)c2ccc(C)cc2)cc1OC (centres unmarked),-17.4
5,COc1ccc(S(=O)(=O)N2CCCOC2CNC(=O)C(=O)NCCc2ccco2)cc1C (centres unmarked),-4.4
6,CCOc1cc(/C=C/C(=O)OCC(=O)NCc2ccco2)cc(Cl)c1OC,-29.9
7,CC1(C)CC(=O)C=C(NC2CCCCCC2)C1,-1.93
8,CC(C)C(=O)N1CCN(c2ccccc2NC(=O)COc2ccc(C3CCCCC3)cc2)CC1,-4.96
9,Cc1cc(-c2nnc3n2N=C(c2ccccc2Br)CS3)n[nH]1,-2.51
10,O=C(O)[C@H]1CCCC[C@H]1C(=O)Nc1ccc(Nc2ccccc2)cc1,4.15
11,O=C1CCCCN1CCCC(=O)N1CCCC(Nc2ccc(F)c(F)c2)C1 (centres unmarked),-27.3
12,Cc1cc2ccccc2c(=O)n1CC(=O)NCC1COc2ccccc2O1 (centres unmarked),0.464
13,COc1ccc(N2Cc3cccc(C(=O)NC(C)CCc4ccco4)c3C2=O)cc1 (centres unmarked),-25.8
14,CN(CC(=O)Nc1cc(Cl)ccc1Cl)C1CCS(=O)(=O)C1 (centres unmarked),-3.19
15,Cc1ccc(C(=O)CSc2nnc(-c3ccc4[nH]c(C)c(C)c4c3)o2)cc1C,8.42
16,Cc1nc(CNC(=O)c2cc(COc3c(F)cccc3F)on2)cs1,-3.86
17,COc1ccc(/C=N/Nc2nncn2N)cc1Br,18
18,Cc1nc2sc(C(N)=O)c(N)c2c2c1CCCC2,0.822
19,O=C(Nc1ccccc1)N1CCC(C(=O)N2CCN(Cc3ccccc3)CC2)CC1,-26.1
20,CC(=O)c1ccc(OCC(=O)N2CCCC(Nc3ccc(C)c(C)c3)C2)cc1 (centres unmarked),-1.47
21,O=C(O)C1C2CCC(C2)C1C(=O)NCCc1ccccc1 (centres unmarked),-2.47
22,COc1ccccc1NC(=O)Cc1ccc(-c2ccccc2)cc1,13.6

row,SMILES,"hERG current change (%, negative = inhibition) at 10uM [%]"
1,CN(C)C(=C(C#N)C#N)N1CCN(c2ccc(Cl)c(Cl)c2)CC1,-63.2
2,Cn1ccnc1-c1ccc(-c2nccn2C)cc1,9.89
3,COc1cc(OC)cc(C(=O)NCC(=O)OCC(=O)/C=C2/N(C)c3ccccc3C2(C)C)c1,2.69
4,Cc1ccc(-n2c(=O)cc(NCc3cccnc3)[nH]c2=O)cc1,-65.5
5,C=CCC1c2cccc(C(=O)O)c2C(=O)N1c1ccc(Cl)cc1 (centres unmarked),-5.49
6,CCn1c(SCc2c(F)cccc2Cl)nnc1-c1ccco1,-16.4
7,O=C(Nc1ccncc1)c1cccs1,-5.03
8,c1ccc2c(c1)Sc1ccccc1N2CC1CN2CCC1CC2 (centres unmarked),-53.1
9,CCc1nnc(NC(=O)C2CCN(S(=O)(=O)Cc3ccccc3)CC2)s1,3.78
10,C=CCN(CC(=O)NC1CCS(=O)(=O)C1)S(=O)(=O)c1ccccc1C(F)(F)F (centres unmarked),54.9
11,Cc1ccccc1-n1c(=O)n(Cc2ccccc2)c(=O)c2[nH]cnc21,-4.59
12,CCCc1nnc(SCC(=O)N2C(C)CCCC2C)n1CC1CCCO1 (centres unmarked),-1.21
13,CN(C)S(=O)(=O)c1ccc(SCC(=O)N2CC(=O)Nc3ccccc32)nc1,4.23
14,CC(C)N1C(=O)CCC1C(=O)N1CCN(c2ccccn2)CC1 (centres unmarked),7.85
15,O=C(NCc1cccnc1)c1ccc(S(=O)(=O)N2CCCCCC2)cc1,-14
16,COc1ccc(CCC(=O)OCC(=O)Nc2ccc(OC)c(OC)c2)cc1OC,10.5
17,CNC(=O)COC(=O)/C=C/c1cn(-c2ccccc2)nc1-c1ccc(C)o1,-2.06
18,Cc1ccccc1N1CCN(C2CCCN(C(=O)c3csc(C(C)C)n3)C2)CC1 (centres unmarked),-43
19,O=C1COc2ccc(S(=O)(=O)Nc3ccc(OC(F)(F)F)cc3)cc2N1,13.3
20,COc1cccc(NC(=O)CSc2nc3ccccc3cc2Cc2ccccc2)c1,-3.83
21,CN(C)S(=O)(=O)c1cc(NC(=O)CNCc2ccc(F)cc2)ccc1Cl.O=C(O)C(=O)O,-43.6
22,Cc1cc(C)c2c(=O)[nH]c(SCC(=O)Nc3ccc(Br)cc3)nc2n1,29.4
